# Measurements from PubChem BioAssay (NCATS).
# Inconclusive means that the source gave no clear call. Such entries were picked first, then a sample of the others. For part of these data: No potency is given beside an inconclusive call; the fits are too rough. Activity calls are given as the source filed them. Unless noted, calls follow the shape of the dose curve; as a rule, active = well fitted curve in the direction sought with a large enough effect; inconclusive = small, poorly fitted or top-dose-only effect, or another doubt; inactive = no such curve, though single readings can be large; an effect the other way counts as inactive or inconclusive.
# Key:
# [1] = target: Cytochrome P450 2C9 (Homo sapiens) (UniProt P11712); assay: Cytochrome P450 family 2 subfamily C member 9 (CYP2C9) small molecule antagonists: luciferase biochemical (cell-free) qHTS assay (AID 1645842; active = well fitted curve in the direction sought with a large enough effect in the repeat runs; inconclusive = weak or mixed curves; inactive = no such curve, though single readings can be large; an effect the other way counts as inactive or inconclusive; also: potency is read from the fitted curve at half-maximal effect; nearly all actives have a fitted effect of over 55% in size)
# In short: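 Luminescence, after 20 min with luciferin detection reagent, reflected CYP2C9 turnover during a 1 h NADPH-driven reaction at 37C. Enzyme-substrate mix contained 0.4% bovine serum albumin and was preincubated with compound 10 min at room temperature.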
# [2] = Primary qHTS for inhibitors of nuclear receptor binding SET domain protein 2 (NSD2) in an isogenic RCH-ACV NSD2 p.E1099K mutant (9B) (AID 1645876); details: activity change, negative = viability loss: at 44.9 µM (top of the series) unless noted; also: nearly all actives have a fitted effect of over 70% in size; also: potency is read from the fitted curve at half-maximal effect
# [3] = Primary qHTS for inhibitors of nuclear receptor binding SET domain protein 2 (NSD2) in an RCH-ACV wild type WT cells (2C) (AID 1645877); details: activity change, negative = cell killing: at 44.9 µM (top of the series) unless noted; also: nearly all actives have a fitted effect of over 70% in size; also: potency is read from the fitted curve at half-maximal effect
# [4] = Primary redox qHTS assay for identification of artifact compounds. (AID 1845223); also: potency is read from the fitted curve at half-maximal effect
# In short: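 Amplex Red (25 uM) and HRP (250 mU/mL) in HBSS, with compounds for 15 min, then 250 uM DTT for 30 min, room temperature, dark. Fluorescence 525/598 nm read; normalized to DMSO and 10 uM DA3003; Hill fit.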
# [5] = system: CAOV3; assay: Primary qHTS to identify gynecologic anti-cancer compounds using libraries of approved drugs and bioactive compounds (AID 1345084); details: Gynecologic cancer cell panel viability, ATPlite luminescence, 48 h; series mostly up to 57.5 µM; also: nearly all actives have a fitted effect of over 55% in size; also: potency is read from the fitted curve at half-maximal effect
# In short: (§1)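 Cell viability after 48 h drug treatment, ATPlite luminescence readout; five doses.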
# [6] = system: Tov112D; assay: as above; details: Gynecologic cancer cell panel viability, ATPlite luminescence, 48 h; series mostly up to 57.5 µM
# In short: as §1
# [7] = system: SKOV3; assay: as above; details: Gynecologic cancer cell panel viability, ATPlite luminescence, 48 h; series mostly up to 57.5 µM
# In short: as §1
# [8] = P-glycoprotein substrates identified in KB-3-1 adenocarcinoma cell line, qHTS therapeutic library screen (AID 1346986); also: nearly all actives have a fitted effect of over 60% in size
# In short: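 KB-3-1 parental and colchicine-selected P-gp-overexpressing KB-8-5-11 cells (colchicine omitted during assay), 500 cells/well, dosed in dose-response for 72 h at 37 °C; CellTiter-Glo luminescence. Cytotoxic: curve class -1.1 to -2.4, max response >50%, AC50 < 10 uM.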
# [9] = P-glycoprotein substrates identified in KB-8-5-11 adenocarcinoma cell line, qHTS therapeutic library screen (AID 1346987); details: activity change, negative = cytotoxicity: at 44.5 µM (top of the series); also: nearly all actives have a fitted effect of over 65% in size; also: potency is read from the fitted curve at half-maximal effect
# In short: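 Steps: plate 500 KB-8-5-11 cells/well in DMEM + 10% FCS (colchicine removed); pin compounds in dose-response; incubate 72 h, 37 degree C, 5% CO2; add CellTiter-Glo, 5 min; read luminescence.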
# [10] = system: Zika virus NS2B-NS3 protease (unlinked complex); assay: Primary screen GU Rhodamine qHTS for Zika virus inhibitors: Unlinked NS2B-NS3 protease assay (AID 1347159); details: Recombinant ZIKV NS2B-NS3 protease, Rhodamine110 substrate fluorescence; series mostly up to 107 µM; also: nearly all actives have a fitted effect of over 60% in size; also: potency is read from the fitted curve at half-maximal effect
# In short: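 Percent inhibition derives from the 15-min fluorescence change (ex 480, em 540 nm), normalized to no-enzyme and no-inhibitor wells. Reactions contained 25 nM NS2B-NS3 complex and 1.5 microM substrate in 10 mM Tris-HCl pH 8.0.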
# [11] = system: Zika virus NS2B-NS3 protease (linked construct); assay: Primary screen NINDS Rhodamine qHTS for Zika virus inhibitors (AID 1347160); also: nearly all actives have a fitted effect of over 55% in size; also: potency is read from the fitted curve at half-maximal effect
# In short: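 In 10 mM Tris-HCl pH 8.0 containing 0.01% Tween 20, linked NS2B-NS3 protease (25 nM final) is exposed to test compounds for 15 min. Cleavage of 1.5 microM Rhodamine110 substrate is tracked by fluorescence over 15 min.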
# [12] = Primary fluorescence-based thiol-reactive (MSTI) qHTS assay for identification of artifact compounds. (AID 1845221); also: potency is read from the fitted curve at half-maximal effect;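 also: thiol-reactive compounds lower the probe fluorescence signal; nearly all actives have a fitted effect of over 65% in size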
# In short: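 Probe: MSTI 4 uM, PBS pH 7.4, 2% DMSO. Incubation 1 h, RT, light-protected. Readout fluorescence 525/598 nm.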
# [13] = system: Tov-21-G; assay: Primary qHTS to identify gynecologic anti-cancer compounds using libraries of approved drugs and bioactive compounds (AID 1345084); details: Gynecologic cancer cell panel viability, ATPlite luminescence, 48 h; series mostly up to 57.5 µM; also: nearly all actives have a fitted effect of over 55% in size; also: potency is read from the fitted curve at half-maximal effect
# In short: as §1
# [14] = target: Cytochrome P450 2D6 (Homo sapiens) (UniProt P10635); assay: Cytochrome P450 family 2 subfamily D member 6 (CYP2D6) small molecule antagonists: luciferase biochemical (cell-free) qHTS assay (AID 1645840; active = well fitted curve in the direction sought with a large enough effect in the repeat runs; inconclusive = weak or mixed curves; inactive = no such curve, though single readings can be large; an effect the other way counts as inactive or inconclusive; also: nearly all actives have a fitted effect of over 55% in size; also: potency is read from the fitted curve at half-maximal effect)
# In short: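 P450-Glo luminescent screen: recombinant CYP2D6 enzyme–proluciferin substrate mix preincubated with compound 10 min at room temperature, then NADPH regeneration added for 1 h at room temperature. Detection reagent added for 20 min; luciferin light read as relative luminescence units.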
# [15] = target: ATP-dependent 6-phosphofructokinase (Trypanosoma brucei brucei) (UniProt O15648); assay: qHTS Assay to Find Inhibitors of T. brucei phosphofructokinase: hit validation (AID 492961); also: potency is read from the fitted curve at half-maximal effect
# In short: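 Luminescence from ADP-Glo reports ADP generated as T. brucei PFK (1.25 nM) phosphorylates 0.5 mM fructose-6-phosphate using 0.1 mM ATP. Reactions ran 45 min at room temperature, pH 8.0.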
# [16] = S16 Schwann cell PMP22 intronic element firefly luciferase assay (AID 624032); also: nearly all actives have a fitted effect of over 30% in size
# In short: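 Rat S16 Schwann cells stably carrying firefly luciferase driven by a PMP22 intronic element, in 10% FBS, treated 24 h at 37 C. ONE-Glo luminescence normalized to PTC124 control and DMSO (0%); curves classed by r2, magnitude and activity.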
# [17] = qHTS of pediatric cancer cell lines to identify multiple opportunities for drug repurposing: Primary screen for SK-N-MC cells (AID 1347093); details: SK-N-MC viability, CellTiter-Glo luminescence, 48 h; activity change, negative = cytotoxic: at 46 µM (top of the series)
# In short: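 Metabolically active cells were quantified by ATP-dependent luminescence (CellTiter-Glo, 15 min at room temperature) following 48 h treatment. Cells had been plated at 500-1,000 per well and settled for 5 h beforehand.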
# [18] = qHTS of pediatric cancer cell lines to identify multiple opportunities for drug repurposing: Primary screen for SK-N-SH cells (AID 1347098);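 also: DMSO served as neutral control and bortezomib at 2.3 µM as positive control; nearly all actives have a fitted effect of over 65% in size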
# In short: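 Cells (500-1,000/well) rested 5 h, then received compounds for 48 h; metabolically active cells were measured by CellTiter-Glo luminescence. Final concentrations spanned up to 46 µM (MIPE, 11-point) or 0.59 nM-46 µM (NPC, 8-point) in primary screens, 11-point in follow-ups.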
# [19] = A High-Content qHTS Against Drug Library for the Identification of Small Molecules that Inhibit DYT1 Early Onset Primary Dystonia-Associated Cell Pathology (AID 1645839; calls by dose curve)
# In short: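 Flp-In T-REx 293 cells with tetracycline-inducible EGFP-delE hTOR1A (WT EGFP-hTOR1A as reference), 800 cells/well; compound added with tetracycline, 48 h at 37 C. Fixed, permeabilized cells imaged; %pathology (punctate TorsinA) primary, cell count counterscreen.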
# [20] = system: CP215; assay: qHTS profiling for inhibitors of Plasmodium falciparum proliferation (AID 504749); also: nearly all actives have a fitted effect of over 60% in size; also: potency is read from the fitted curve at half-maximal effect; details: P. falciparum in erythrocytes, SYBR Green DNA, 72 h; series mostly up to 28.7 µM
# In short: (§2)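 P. falciparum-infected erythrocytes (0.3% parasitemia, 2.5% hematocrit) incubated with compound 72 h at 37 C, 5% CO2. Parasite DNA detected by SYBR Green after lysis, overnight at room temperature; normalised to 0.29 uM artemisinin and DMSO.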
# [21] = system: CP266; assay: as above; details: P. falciparum in erythrocytes, SYBR Green DNA, 72 h; series mostly up to 28.7 µM
# In short: as §2
# [22] = system: CP325; assay: as above; details: P. falciparum in erythrocytes, SYBR Green DNA, 72 h; series mostly up to 28.7 µM
# In short: as §2
# [23] = system: Dd2; assay: as above; details: P. falciparum in erythrocytes, SYBR Green DNA, 72 h; series mostly up to 28.7 µM
# In short: as §2
# [24] = system: P93_24; assay: as above; details: P. falciparum in erythrocytes, SYBR Green DNA, 72 h; series mostly up to 28.7 µM
# In short: as §2
# [25] = system: Nanoluciferase (engineered Oplophorus gracilirostris luciferase); assay: Primary Nanoluciferase (NLuc) qHTS assay for identification of artifact compounds. (AID 1845222);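 also: NLuc secreted into diluted conditioned medium of S16 cells; potency is read from the fitted curve at half-maximal effect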
# In short: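 S16 cell supernatant NLuc, 1:55; cpds qHTS; 15 min RT dark; Nano-Glo substrate 1:100, 5 min; luminescence; Hill fit of % inhibition.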
# [26] = target: Cytochrome P450 3A4 (Homo sapiens) (UniProt P08684); assay: Cytochrome P450 family 3 subfamily A member 4 (CYP3A4) small molecule antagonists: luciferase qHTS assay (AID 1645841; active = well fitted curve in the direction sought with a large enough effect in the repeat runs; inconclusive = weak or mixed curves; inactive = no such curve, though single readings can be large; an effect the other way counts as inactive or inconclusive; also: nearly all actives have a fitted effect of over 45% in size)
# In short: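 P450-Glo CYP3A4 enzyme with proluciferin substrate preincubated 10 min with compound at room temperature, then NADPH regeneration 1 h. Luciferin detection reagent added for 20 min; luminescence recorded. Ketoconazole positive control.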
# [27] = target: Calcium and integrin-binding protein 1 (Homo sapiens) (UniProt Q99828); assay: Primary qHTS for Identification of Calcium Integrin Binding Protein 1 (CIB1) Competitor (AID 1508620);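 also: GST tagged CIB1 binding a fluorescein labelled alphaIIb integrin peptide tracer; top concentration of the series differs between compounds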
# In short: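 Fluorescence polarization competition: GST-tagged CIB1 (1 uM final) preincubated with compound 15 min at room temperature, then FITC-labelled alphaIIb peptide (100 nM final) added. After 15 min at room temperature, polarization read at Ex 480/Em 540.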
# Tags tell the direction and shape of the fitted curve.
# UniProt P10635, sequence (P10635 whole entry, looked up): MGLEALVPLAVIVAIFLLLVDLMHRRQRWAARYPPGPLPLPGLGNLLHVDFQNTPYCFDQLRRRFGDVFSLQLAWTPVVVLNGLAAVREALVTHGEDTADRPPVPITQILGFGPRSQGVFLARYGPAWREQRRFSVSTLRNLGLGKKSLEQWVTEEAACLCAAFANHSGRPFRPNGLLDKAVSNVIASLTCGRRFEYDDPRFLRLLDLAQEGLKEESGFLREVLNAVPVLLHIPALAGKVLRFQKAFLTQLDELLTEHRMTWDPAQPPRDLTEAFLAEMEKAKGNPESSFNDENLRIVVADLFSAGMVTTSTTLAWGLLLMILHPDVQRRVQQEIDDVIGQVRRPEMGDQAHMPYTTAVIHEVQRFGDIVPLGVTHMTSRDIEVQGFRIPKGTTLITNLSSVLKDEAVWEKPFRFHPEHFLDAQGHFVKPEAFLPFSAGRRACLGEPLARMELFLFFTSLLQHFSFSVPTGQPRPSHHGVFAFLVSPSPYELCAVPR
# UniProt P11712, sequence (P11712 whole entry, looked up): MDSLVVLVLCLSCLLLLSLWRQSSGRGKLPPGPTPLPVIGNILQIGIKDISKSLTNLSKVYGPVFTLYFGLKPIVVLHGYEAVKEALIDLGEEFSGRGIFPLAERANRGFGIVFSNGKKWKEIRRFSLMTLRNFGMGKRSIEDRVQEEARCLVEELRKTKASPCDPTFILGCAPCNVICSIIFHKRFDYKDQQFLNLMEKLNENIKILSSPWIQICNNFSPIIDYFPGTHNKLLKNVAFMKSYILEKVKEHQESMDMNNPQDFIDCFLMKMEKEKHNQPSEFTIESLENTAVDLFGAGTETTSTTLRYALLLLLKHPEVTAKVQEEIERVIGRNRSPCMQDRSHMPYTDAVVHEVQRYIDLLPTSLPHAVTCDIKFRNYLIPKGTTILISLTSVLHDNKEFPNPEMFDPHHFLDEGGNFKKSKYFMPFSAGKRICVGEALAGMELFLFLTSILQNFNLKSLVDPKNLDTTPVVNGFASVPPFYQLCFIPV
# UniProt P08684, sequence (P08684 whole entry, looked up): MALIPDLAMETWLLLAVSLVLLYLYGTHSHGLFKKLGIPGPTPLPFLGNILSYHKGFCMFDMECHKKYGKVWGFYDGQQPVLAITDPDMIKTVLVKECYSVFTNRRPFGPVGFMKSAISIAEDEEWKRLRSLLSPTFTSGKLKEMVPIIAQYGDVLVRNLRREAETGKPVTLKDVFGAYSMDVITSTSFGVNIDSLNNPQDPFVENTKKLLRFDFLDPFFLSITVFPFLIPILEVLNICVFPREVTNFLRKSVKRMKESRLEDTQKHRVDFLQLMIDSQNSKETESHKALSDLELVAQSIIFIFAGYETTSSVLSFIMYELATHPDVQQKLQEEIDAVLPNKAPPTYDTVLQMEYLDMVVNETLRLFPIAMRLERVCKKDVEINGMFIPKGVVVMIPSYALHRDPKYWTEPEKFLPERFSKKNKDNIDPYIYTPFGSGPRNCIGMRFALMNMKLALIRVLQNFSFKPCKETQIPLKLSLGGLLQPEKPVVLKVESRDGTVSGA
# UniProt O15648, sequence (O15648 whole entry, looked up): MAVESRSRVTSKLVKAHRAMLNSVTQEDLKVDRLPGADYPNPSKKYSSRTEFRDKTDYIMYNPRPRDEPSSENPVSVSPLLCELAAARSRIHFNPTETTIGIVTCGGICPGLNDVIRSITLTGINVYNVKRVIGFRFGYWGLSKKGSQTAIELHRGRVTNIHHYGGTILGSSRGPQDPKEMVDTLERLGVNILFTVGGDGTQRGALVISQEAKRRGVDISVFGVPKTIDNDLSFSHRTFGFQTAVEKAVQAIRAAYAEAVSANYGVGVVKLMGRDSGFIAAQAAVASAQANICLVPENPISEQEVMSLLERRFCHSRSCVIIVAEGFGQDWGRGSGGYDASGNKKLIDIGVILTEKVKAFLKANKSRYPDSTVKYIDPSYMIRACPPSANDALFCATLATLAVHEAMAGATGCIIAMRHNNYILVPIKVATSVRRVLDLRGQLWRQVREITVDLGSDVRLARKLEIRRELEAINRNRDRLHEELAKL
# UniProt Q99828, sequence (Q99828 whole entry, looked up): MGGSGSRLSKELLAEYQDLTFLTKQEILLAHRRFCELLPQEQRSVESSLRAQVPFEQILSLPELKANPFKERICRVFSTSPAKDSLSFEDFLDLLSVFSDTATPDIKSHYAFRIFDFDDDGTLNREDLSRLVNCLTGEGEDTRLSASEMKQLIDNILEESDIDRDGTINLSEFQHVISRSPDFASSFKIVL
compound,measurement,setting,value
COc1cccc(CN(C(=O)CC(C)(C)C)C2CC(C(=O)N3CCNCC3)N(Cc3ccc4c(c3)OCO4)C2)c1 (stereo not drawn),Potency,[1],"inconclusive [inhibitor, partial curve]"
same,Potency,[2],"inconclusive [inhibitor, single point]"
same,Potency,[3],"inconclusive [inhibitor, single point]"
same,Potency,[4],"inconclusive [activator, full curve, poor fit]"
same,Potency,[5],"inconclusive [rising, partial curve]"
same,Potency,[6],inactive
O=C(O)CCCCCC[C@H]1C(=O)NC(=O)N1CC[C@@H](O)C1CCCCC1,Potency,[2],"inconclusive [inhibitor, full curve]"
same,Potency,[5],"inconclusive [rising, single point]"
same,Potency,[7],"inconclusive [cytotoxic, single point]"
C/C=C(/C)C(=O)OC1CC(C)(C)CC2C3=CCC4C5(C)CCC(OC6OC(C)C(OC7OC(C(=O)O)C(O)C(OC8OC(CO)C(O)C(O)C8OC8OC(CO)C(O)C(O)C8O)C7O)C(O)C6O)C(C)(C)C5CCC4(C)C3(C)C(OC(=O)/C=C/C=C/C=C/CCC)C(OC(C)=O)C12CO (stereo not drawn),outcome,[8],inactive [at 9.29 µM]
same,outcome,[9],inactive [at 9.29 µM]
same,Potency,[10],"inconclusive [inhibitor, full curve, poor fit]"
same,Potency,[11],"inconclusive [inhibitor, single point]"
same,Potency,[5],"inconclusive [rising, single point]"
COCC1OC(OC(C)(C)C2CCC3(C)C=C(C4CCC5C4(C)CC(O)C4OC(C(C)(C)O)CCC45C)CCC3O2)C(NC(C)=O)C(O)C1O (stereo not drawn),Potency,[3],inactive
same,Potency,[12],"inconclusive [inhibitor, full curve]"
same,Potency,[5],inactive
same,Potency,[13],inactive
O=C1NC(Cc2c[nH]c3ccccc23)C(=O)NC1Cc1cnc[nH]1 (stereo not drawn),Potency,[9],inactive
same,Potency,[3],inactive
same,Potency,[5],"inconclusive [rising, partial curve]"
same,Potency,[6],inactive
Fc1ccc(-c2c3cccc(C(F)(F)F)c3nn2Cc2ccc(F)cc2Cl)cc1,Potency,[9],"inconclusive [inhibitor, partial curve, poor fit]"
same,Potency,[14],inactive
same,Potency,[1],"inconclusive [inhibitor, full curve, poor fit]"
same,Potency,[5],inactive
CC1(C)CC[C@]2(C(=O)O)CC[C@]3(C)C(=CCC4[C@@]5(C)C[C@@H](O)[C@H](O)[C@@](C)(CO)C5CC[C@]43C)C2C1 (stereo partly drawn),Potency,[9],inactive
same,Potency,[10],"inconclusive [inhibitor, partial curve]"
same,Potency,[11],"inconclusive [inhibitor, single point]"
same,Potency,[3],inactive
same,Potency,[5],inactive
O=C1NC(=O)[C@@]2(CCOc3ccc(F)cc32)N1,Potency,[15],"inconclusive [falling, partial curve]"
same,Potency,[16],inactive
same,Potency,[17],inactive
same,Potency,[18],inactive
same,Potency,[19],inactive
same,Potency,[5],"inconclusive [rising, full curve, poor fit]"
same,Potency,[20],inactive
same,Potency,[21],"inconclusive [inhibitor, partial curve, poor fit]"
same,Potency,[22],inactive
same,Potency,[23],inactive
same,Potency,[24],inactive
CC(C)C1=CC2=CCC3[C@](C)(CCC[C@@]3(C)C(=O)O)C2CC1=O (stereo partly drawn),Potency,[10],"inconclusive [inhibitor, partial curve]"
same,Potency,[5],inactive
CC12CCC3c4ccc(O)cc4CCC3C1CC(OC1OC(C(=O)O)C(O)C(O)C1O)C2O (stereo not drawn),Potency,[2],inactive
same,Potency,[25],"inconclusive [inhibitor, single point]"
same,Potency,[4],inactive
same,Potency,[5],inactive
C=C1C[C@]23C[C@H]1CC[C@H]2C1=C[C@H]2OC(=O)[C@@](C)([C@H]1[C@@H]3C(=O)O)[C@H]2O,Potency,[11],inactive
same,Potency,[12],"inconclusive [inhibitor, full curve, poor fit]"
same,Potency,[5],inactive
CCNC(=O)C1CC(F)(c2ccc(CN3CCCC3)c(F)c2)C1 (stereo not drawn),Potency,[10],inactive
same,Potency,[14],"inconclusive [inhibitor, partial curve, poor fit]"
same,Potency,[26],inactive
same,Potency,[3],inactive
same,Potency,[12],inactive
same,Potency,[5],"inconclusive [rising, partial curve, poor fit]"
O=C(OC[C@@]1(O)CO[C@@H](O[C@H]2[C@H](Oc3ccc(O)cc3)O[C@H](CO)[C@@H](O)[C@@H]2O)[C@@H]1O)c1ccc(O)cc1,Potency,[11],"inconclusive [inhibitor, partial curve, poor fit]"
same,Potency,[27],inactive
same,Potency,[12],"inconclusive [inhibitor, partial curve]"
same,Potency,[5],inactive
CN[C@H](CNC(=O)N1CCC[C@@H]([C@@H](OCCNC(=O)OC)c2cccc(Cl)c2)C1)C[C@H]1CCCOC1,Potency,[14],active: 19 µM
same,Potency,[5],"inconclusive [rising, partial curve, poor fit]"
